Results as given in PubChem BioAssay AID588342 (National Center for Advancing Translational Sciences (NCATS), 2011).
In all, about 360,000 compounds went through this assay and about 25,000 (6.9%) were called active. Inconclusive results, whose numbers are uncertain, are shown with a selection of clear calls. Calls follow the shape of the dose curve; as a rule, active = well fitted inhibition curve with a large enough effect; inconclusive = small, poorly fitted or top-dose-only effect; inactive = flat fitted curve, though single readings scatter. Potencies beside an inconclusive call are fits to weak or partial responses and may not hold up.

Molecular target: Luciferin 4-monooxygenase (Photinus pyralis) (UniProt P08659)
UniProt P08659, sequence (P08659 whole entry, looked up): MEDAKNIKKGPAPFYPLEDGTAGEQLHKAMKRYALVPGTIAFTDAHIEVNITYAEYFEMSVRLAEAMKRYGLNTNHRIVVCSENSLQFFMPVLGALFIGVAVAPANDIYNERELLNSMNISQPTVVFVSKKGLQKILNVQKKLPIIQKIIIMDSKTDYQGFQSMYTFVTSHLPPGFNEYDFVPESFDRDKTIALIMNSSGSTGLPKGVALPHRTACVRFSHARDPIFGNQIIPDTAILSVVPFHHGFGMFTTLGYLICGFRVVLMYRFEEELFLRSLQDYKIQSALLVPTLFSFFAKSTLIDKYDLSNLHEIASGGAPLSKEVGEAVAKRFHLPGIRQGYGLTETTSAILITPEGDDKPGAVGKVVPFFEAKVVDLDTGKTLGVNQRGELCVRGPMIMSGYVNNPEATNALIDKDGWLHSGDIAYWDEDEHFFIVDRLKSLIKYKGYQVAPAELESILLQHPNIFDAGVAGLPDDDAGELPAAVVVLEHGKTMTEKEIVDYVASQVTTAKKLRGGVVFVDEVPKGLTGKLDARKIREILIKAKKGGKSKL
Assay: qHTS profiling assay for firefly luciferase inhibitor/activator using purifed enzyme and Km concentrations of substrates (counterscreen for miR-21 project); also: nearly all actives have a fitted effect of over 55% in size;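 as to activity change, negative = inhibition: plate controls were vehicle for no effect and reference inhibitor for full effect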
Conditions: purified FLuc, luminescence inhibition; series mostly up to 57.5 µM; activity change, negative = inhibition: at the top concentration
Summary of the method: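 Biochemical qHTS of compounds, final roughly 60 µM downward over six points, against 10 nM purified firefly luciferase using Km concentrations of substrates (10 uM D-luciferin, 10 uM ATP) in Tris acetate pH 7.5 buffer; luminescence output.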
Potency is read from the fitted curve at half-maximal effect; tags tell the direction and shape of the fitted curve.

Compound	Potency	activity change, negative = inhibition
O=C(Cn1cnc2ccccc2c1=O)c1ccc2ccccc2c1	inconclusive: 26.9 µM [inhibitor, single point]	–
CC(C(=O)Nc1ccc(C(=O)O)c(O)c1)N1C(=O)/C(=C\c2ccco2)SC1=S (centres undefined)	inconclusive: 26.9 µM [inhibitor, single point]	–
Cc1ccc(OCC(=O)NCCO)c(Br)c1	inconclusive: 37.9 µM [inhibitor, partial curve, poor fit]	–
COc1cc2c(cc1NC(=O)C(C)OC(=O)c1ccc(S(=O)(=O)Nc3ccccc3Cl)cc1)oc1ccccc12 (centres undefined)	–	inactive: -18.5%
COc1ccc(NC(=O)c2cccs2)c([N+](=O)[O-])c1	inconclusive: 8.49 µM [inhibitor, partial curve]	–
N#Cc1c(NC(=O)CSc2n[nH]c(Cc3ccccc3)n2)oc(-c2ccccc2)c1-c1ccccc1	–	inactive: 8.46%
Cc1cc(N=Nc2ccc(C)c(N=Nc3cc(C)c(N)cc3N)c2)c(N)cc1N	active: 0.536 µM	–
O=C(CSc1ccc(Cl)cc1)Nc1cccc(NC(=O)c2ccco2)c1	inconclusive: 19 µM [inhibitor, partial curve]	–
O=C(CSc1nnc(-c2ccccc2O)o1)N1CCOCC1	inconclusive: 23.9 µM [inhibitor, single point]	–
CC(=O)N1CCc2c(sc3c2c(=O)n(Cc2ccccc2)c(=O)n3CC(=O)Nc2ccc(C)c(F)c2)C1	–	inactive: -1.16%
COc1ccc(CN2C(=O)C(NC(=O)c3ccccc3OC)(C(F)(F)F)N=C2c2ccccc2)cc1 (centres undefined)	–	inactive: 5.34%
CCc1nc(Nc2ccc3c(c2)OCO3)c2oc3ccccc3c2n1	inconclusive: 23.9 µM [inhibitor, single point]	–
COc1ccc(OCCC(=O)OCC(=O)Nc2cccc(S(=O)(=O)N3CCOCC3)c2)cc1	inconclusive: 23.9 µM [inhibitor, single point]	–
CCc1ccc(S(=O)(=O)c2nnn(-c3cccc(C)c3)c2N)cc1	–	inactive: 0.963%
CSc1ccccc1C(=O)C1CCCN(C(=O)CCc2cccnc2)C1 (centres undefined)	inconclusive: 23.9 µM [inhibitor, partial curve, poor fit]	–
CCCc1ccc(-c2cc(C(=O)N3CCN(c4ccccn4)CC3)c3ccccc3n2)cc1	active: 0.107 µM	–
COc1ccccc1NC(=O)Nc1cccc(NC(C)=O)c1	inconclusive: 23.9 µM [inhibitor, partial curve, poor fit]	–
Cc1cnc(NC(=O)CCc2ccccc2)s1	inconclusive: 23.9 µM [inhibitor, single point]	–
COc1ccc(CCC(=O)NCc2ccc3c(c2)CCN3C(=O)c2ccc(C)cc2)cc1	inconclusive: 23.9 µM [inhibitor, single point]	–
O=C1/C(=C/c2cccs2)SC(=S)N1CC(=O)N1CCCCC1CCO (centres undefined)	inconclusive: 37.9 µM [inhibitor, single point]	–
Cc1ccc(S(=O)(=O)N(C)C)cc1NC(=S)NC1CCCC(C)C1C (centres undefined)	–	inactive: -2.35%
COc1cccc(-c2nc(SCC(=O)N3CCc4ccccc43)c3c(=O)n(C)c(=O)n(C)c3n2)c1	–	inactive: -0.251%
CN(C(=O)c1cnccn1)c1c(N)n(Cc2ccccc2)c(=O)[nH]c1=O	–	inactive: -0.554%

Compound	Potency	activity change, negative = inhibition
COc1ccc(CCNc2nc(=S)[nH]c3cc(OC)c(OC)cc23)cc1OC	–	inactive: -0.924%
COc1ccc(NC(=O)Cn2ccn(-c3ccccc3)c(=O)c2=O)cc1	–	inactive: -0.733%
Cc1ccc(-c2nc3cccnc3s2)cc1NC(=O)Cc1ccccc1	active: 1.07 µM	–
CCOc1ccc(OCCC(=O)OCC(=O)NCc2ccccc2)cc1	inconclusive: 21.3 µM [inhibitor, single point]	–
CCOC(=O)c1ccc(NC(=O)CSc2nc3ncccc3[nH]2)cc1	inconclusive: 37.9 µM [inhibitor, single point]	–
Cc1cc(-n2cnnn2)ccc1C(C)C	inconclusive: 37.9 µM [inhibitor, partial curve, poor fit]	–
COc1ccc(Nc2nc(N)nc(CSC(=S)N3CCCCC3)n2)cc1	inconclusive: 26.9 µM [inhibitor, partial curve]	–
CC(=O)c1ccc(N2CCN(C(=O)c3cc(-c4cccnc4)nc4ccc(Br)cc34)CC2)cc1	active: 10.7 µM	–
O=C(Nc1nc2c(Cl)ccc(Cl)c2s1)c1ccco1	inconclusive: 26.9 µM [inhibitor, single point]	–
O=C(N/N=C\C=C\c1ccc2c(c1)OCO2)C1COc2ccccc2O1 (centres undefined)	inconclusive: 19 µM [inhibitor, single point]	–
COc1ccc(C(=O)O)cc1S(=O)(=O)N(CCc1ccccc1)Cc1ccccc1	–	inactive: 0.344%
O=c1[nH]c(CSc2nnc(COc3ccccc3)n2-c2ccccc2)nc2ccccc12	inconclusive: 37.9 µM [inhibitor, partial curve, poor fit]	–
Cc1ccc(NC(=O)CCCSc2nc3ccccc3[nH]2)cc1	inconclusive: 37.9 µM [inhibitor, partial curve, poor fit]	–
COc1cc(C(=O)OCC(=O)c2cc(C)n(CC3CCCO3)c2C)cc(OC)c1C (centres undefined)	active: 16.9 µM	–
Cc1ccc(NC(=O)Nc2cc(S(C)(=O)=O)ccc2Cl)cc1	inconclusive: 26.9 µM [inhibitor, partial curve]	–
CCc1ccc(NC(=O)CSc2nnc(-c3cc4occc4n3C)n2-c2ccccc2C)cc1	–	inactive: 0.845%
Clc1ccccc1Cc1cn2cc(-c3ccccc3)nc2s1	active: 0.169 µM	–
Cc1cnc(C(=O)OCC(=O)c2ccc(C3CCCCC3)cc2)cn1	inconclusive: 30.1 µM [inhibitor, partial curve, poor fit]	–
COc1ccc(-c2nc3cnccn3c2Nc2ccc3c(c2)OCO3)cc1	inconclusive: 30.1 µM [inhibitor, single point]	–
CS(=O)(=O)Nc1ccc(C2=NN(C(=O)c3ccco3)C(c3ccco3)C2)cc1 (centres undefined)	inconclusive: 15.1 µM [inhibitor, partial curve, poor fit]	–
C=CCNC(=O)Cn1nnc(-c2ccc(-c3ccc(OC)cc3)cc2)n1	inconclusive: 0.213 µM [inhibitor, full curve]	–
CCCC(=O)c1ccc(N2CCCC2)c(F)c1	active: 15.1 µM	–
COc1cccc(-c2nnc(NC(=O)c3cccc(F)c3)o2)c1	active: 16.9 µM	–

Compound	Potency	activity change, negative = inhibition
O=C(Nc1ccc(-c2nc3cccnc3s2)cc1)c1ccc(Br)o1	inconclusive: 9.53 µM [inhibitor, partial curve]	–
Cc1ccc(C(=O)c2coc3c2C(=O)C(=O)c2ccccc2-3)cc1	inconclusive: 21.3 µM [inhibitor, partial curve, poor fit]	–
N#CC1=C(S)N(c2ccccc2)C2(CCCCC2)NC1=O	inconclusive: 21.3 µM [inhibitor, partial curve, poor fit]	–
CCC(C)NC(=O)CSc1nc2cc3c(cc2c(=O)n1CCCC(=O)NCc1ccc2c(c1)OCO2)OCO3 (centres undefined)	–	inactive: -0.668%
COc1cc(/C=C2\CCC(C3CCCC3)C2=O)cc(OC)c1OC (centres undefined)	inconclusive: 7.57 µM [inhibitor, partial curve, poor fit]	–
O=C(N/N=C/c1ccccc1[N+](=O)[O-])c1ccc(CN2CCOCC2)cc1	inconclusive: 16.9 µM [inhibitor, partial curve]	–
CC(C)(C)C(=O)Nc1nc2c(s1)COc1ccccc1-2	inconclusive: 30.1 µM [inhibitor, single point]	–
CC(C)Oc1ccc(CNC(=O)c2ccc3nc(Cc4ccccc4)oc3c2)cc1	inconclusive: 30.1 µM [inhibitor, partial curve, poor fit]	–
COc1cc(/C=C/c2ccc3cccc(O)c3n2)ccc1O	active: 6.75 µM	–
N#Cc1c(SC(C(=O)O)c2ccccc2)nc2c(c1-c1cccs1)CCCC2 (centres undefined)	inconclusive: 37.9 µM [inhibitor, single point]	–
O=C(COC(=O)C1CCN(c2ccc(C(F)(F)F)cn2)CC1)c1ccccc1	inconclusive: 30.1 µM [inhibitor, partial curve, poor fit]	–
COc1cc(OC)cc(C(=O)NCc2ccc3[nH]c(C)cc3c2)c1	inconclusive: 21.3 µM [inhibitor, partial curve, poor fit]	–
COc1cccc(C(=O)NCC(=O)N/N=C/c2ccc(OC(=O)c3cccs3)c(OC)c2)c1	inconclusive: 23.9 µM [inhibitor, partial curve, poor fit]	–
CC1CN(C(=O)Nc2ccc3c(c2)OCO3)CC(C)O1 (centres undefined)	active: 16.9 µM	–
COC(=O)c1cccc(NC(=O)CCc2c(C)noc2C)c1	–	inactive: 2.34%
COc1ccc(CCNC(=O)C(=O)NCC2OCCN2S(=O)(=O)c2cccs2)cc1 (centres undefined)	–	inactive: 0.751%
C/C(=N\NC(=O)c1ccc(N/N=C(\C)c2ccncc2)cc1)c1ccncc1	inconclusive: 26.9 µM [inhibitor, partial curve]	–
CN(Cc1ccccc1)S(=O)(=O)c1ccc(N2CCOCC2)nc1	–	inactive: 4.37%
C=CCn1c(O)c(C=Nc2ccccc2)sc1=S	inconclusive: 10.7 µM [inhibitor, partial curve, poor fit]	–
COc1cccc(NS(=O)(=O)c2ccc3[nH]cc(C(=O)NC4CCCCC4)c(=O)c3c2)c1	inconclusive: 33.8 µM [inhibitor, partial curve, poor fit]	–
CCS(=O)(=O)c1ccc(-c2csc(-c3ccccc3)n2)c(Cl)c1Cl	active: 23.9 µM	–
Cc1cc(C)cc(NC(=O)CSc2ccc(-c3ccccn3)nn2)c1	inconclusive: 10.7 µM [inhibitor, partial curve, poor fit]	–
Cc1ccc(C(=O)/C=C/c2c(C)nn(-c3ccccc3)c2Cl)cc1	active: 6.01 µM	–
